The RNAGym collection of RNA variant scans (doi:10.7554/elife.90254)
The source gives no read counts; variants with many changes may rest on few reads.

B1: LINE1-full (parent)
chain: UACGUAGGUGGUUUUCCCCUGAUAGUGCUAAGGGGGCCUGGAAGUUUGGACUGGGCAGAGCUCAACACAGCGUGGCAAAGUGGCUGUGGCUAGACUGCCUCUCUGGAUUCCUCGUCACUCAGCAGGGCAUCUCUGAGAGAAAUGCC

Variants of: B1
Assay: self-cleavage, relative activity (ratio to wild type); higher = more cleavage; in vitro, sequencing; the parent is a self-cleaving ribozyme
Work on U15C G55C U62C yielded a self-cleavage of 0.06.
Work on C19A U29C A138G yielded a self-cleavage of 2.68.
For U15G A69G A117C, the self-cleavage was 0.
U20A A50G A69U A141G gave a self-cleavage of 0.05.
U20A A129G U132C U134A gave a self-cleavage of 0.6.
For C18U U39C G55U, the self-cleavage was 0.21.
For U15C U39A A142G, the self-cleavage was 1.11.
Work on C19U U52C A138G yielded a self-cleavage of 0.
In the case of C16U U23C C113G U115A, the self-cleavage is reported as 1.49.
U15C U100A A141G showed a self-cleavage of 1.07.
For C19U A22G U108C, the self-cleavage was 0.71.
U20A A78G C110A U115C A140G showed a self-cleavage of 1.3.
In the case of C17U G36A U73A A121G, the self-cleavage is reported as 1.51.
C18G C51U U109C A121U showed a self-cleavage of 2.15.
For C17U U104C A141G, the self-cleavage was 1.57.
U15G A78G U96C A124G showed a self-cleavage of 0.
With C17G A31U U39C G60A U62C the self-cleavage was 0.27.
U20A A117U A124G A142G showed a self-cleavage of 1.45.
For C19G U119C U132C, the self-cleavage was 1.43.
For U15C G40A G114C A129C, the self-cleavage was 2.
In the case of C17U G35A C133A, the self-cleavage is reported as 1.05.
Variant C16U U62A U102C U104A has a self-cleavage of 0.04.
U15C U26C A43G U81A gave a self-cleavage of 1.05.
With C16U A117U A124G the self-cleavage was 1.33.
C17U A64G A117G G122C gave a self-cleavage of 0.
Variant U15C U20C G55U A141G has a self-cleavage of 0.2.
U15C U132A A140G showed a self-cleavage of 2.72.
For U15C G25A G70A, the self-cleavage was 0.18.
U15C U85C A136G showed a self-cleavage of 0.57.
Work on U15C G40A A64G A142G yielded a self-cleavage of 0.24.
C16U A50G A136G showed a self-cleavage of 0.32.
Variant U20A G27A U47A has a self-cleavage of 0.8.
For U20A U47A U108C, the self-cleavage was 1.35.
U15C G44A U100C U115A A142G U143C gave a self-cleavage of 2.63.
For U15C U52A U62A U100C A142G, the self-cleavage was 0.05.
For C19A A92U A107G C128U, the self-cleavage was 0.38.
For U15C U102C U109C, the self-cleavage was 1.2.
With C18A U39C A57G the self-cleavage was 0.3.
C19U U85C U115C C131A showed a self-cleavage of 0.1.
U15C U46G U104C U143A showed a self-cleavage of 1.67.
With C19A A79G U87G C90U A140G the self-cleavage was 0.13.
For U15G U73C G86U, the self-cleavage was 0.18.
With C18U C118G A121U the self-cleavage was 1.26.
For C18U G36C U52G A140G, the self-cleavage was 0.4.
U15C U87C A138U gave a self-cleavage of 0.1.
With U15C U20A A121U the self-cleavage was 1.6.
With C16U A50G G53A A92G the self-cleavage was 0.06.
Work on U15C U46C A136G yielded a self-cleavage of 1.84.
In the case of U15C G114A A140G, the self-cleavage is reported as 1.33.
Variant U15C G35A U81C has a self-cleavage of 1.44.
U15C U23C A43G U102A G122A U130C showed a self-cleavage of 1.92.
In the case of U15C U52C A67U G75A, the self-cleavage is reported as 0.18.
U20A C66U A79U U119C A129G U134C U143A gave a self-cleavage of 0.07.
C18G U26C U108C showed a self-cleavage of 0.77.
With U15C U47C A50U U112A the self-cleavage was 0.7.
U15C U73A A79G A138G showed a self-cleavage of 2.57.
For C18A A31C A129G A140G A141G, the self-cleavage was 0.57.
Variant U15C U81C A117U A121G has a self-cleavage of 2.37.
Work on U20A U46C U62C A77G yielded a self-cleavage of 0.
C18A U47A U87A U119A gave a self-cleavage of 0.1.
With C19U U26C A30G the self-cleavage was 1.53.
Work on C18A U20C U39A U47A U87C U96A U112C yielded a self-cleavage of 0.22.
In the case of U15C G44A U47C U100A C146U, the self-cleavage is reported as 1.38.
Work on C19U U115C A142G yielded a self-cleavage of 0.97.
In the case of C19U G33A U73A, the self-cleavage is reported as 0.95.
For C19U U96C A136G, the self-cleavage was 0.11.
Work on C16U U102A A136G yielded a self-cleavage of 0.8.
Variant U20A U29G U62C U134C has a self-cleavage of 0.35.
U20A A50G U102C gave a self-cleavage of 1.38.
With U15C U20C U112C the self-cleavage was 1.
Variant U15C U23C A107G U119C has a self-cleavage of 0.34.
C16U A24G U134A showed a self-cleavage of 0.63.
Variant C19U G25A A67G has a self-cleavage of 0.31.
In the case of U20A G34U A77G U87C, the self-cleavage is reported as 0.19.
Variant C18U A78G U132C has a self-cleavage of 0.74.
In the case of U15C U45C G55C, the self-cleavage is reported as 0.07.
U15C U85A A121U gave a self-cleavage of 0.27.
Work on U15C U85A A121G yielded a self-cleavage of 0.
C18A G54U A77G A92U C111U gave a self-cleavage of 0.24.
For C18U U26C A129G U143A, the self-cleavage was 1.34.
Work on C19U U109A A138U yielded a self-cleavage of 1.75.
U15C U119A U134C showed a self-cleavage of 0.76.
C17U C56U G75A A79G U104C showed a self-cleavage of 0.
Work on C18U U62C A129U yielded a self-cleavage of 0.06.
In the case of U15C G53U A129G, the self-cleavage is reported as 1.95.
Work on U15C G105A A107U yielded a self-cleavage of 2.44.
Work on U20A U62C U87A yielded a self-cleavage of 0.08.
C18U A30U U85C C101U C120U gave a self-cleavage of 0.15.
With U15C U85C U134A A141U the self-cleavage was 0.11.
C16U A77U G89A U108C A142G showed a self-cleavage of 0.05.
With U15C U39C U85C the self-cleavage was 0.
In the case of U15C U26C U45C A65U C99A, the self-cleavage is reported as 0.11.
For U15C G54A U108G A129U A140G A141G, the self-cleavage was 0.13.
In the case of C16U U96C U112C, the self-cleavage is reported as 0.07.
In the case of U20A G60C U102C A140G A141G, the self-cleavage is reported as 0.03.
For U20A U39A G86A, the self-cleavage was 0.1.
In the case of C19U U47A A124U, the self-cleavage is reported as 0.7.
Variant C18U A94G U109C has a self-cleavage of 0.35.
Variant U15C U46A U134C has a self-cleavage of 1.24.
In the case of U15C U87C U119C G125A A142G, the self-cleavage is reported as 0.5.
Work on C18U U73G A94G U102C yielded a self-cleavage of 0.
In the case of C17A U96C G114A, the self-cleavage is reported as 0.08.
For U15C U73G U109C A129G, the self-cleavage was 0.42.
In the case of C19A A22G A121G, the self-cleavage is reported as 0.25.
For C17U U20C A92G, the self-cleavage was 0.
In the case of U20A C38U U47C G55C A64G G135A, the self-cleavage is reported as 0.61.
C19U A22G A42G showed a self-cleavage of 1.21.
Work on C18U U73A U100A yielded a self-cleavage of 1.07.
Work on C19U C84U A140U yielded a self-cleavage of 0.05.
Variant C17U A31U C51U has a self-cleavage of 0.88.
Work on U20A C68U A77G yielded a self-cleavage of 0.42.
For C17U A24C A140G, the self-cleavage was 0.
Work on C16U U23A G126A yielded a self-cleavage of 1.25.
Work on U15C U39A C120U U132C yielded a self-cleavage of 2.33.
For U20A A77G G88A U100C, the self-cleavage was 0.15.
U20A A69G C101U A136G gave a self-cleavage of 0.61.
For U15C U52C U112C A124G, the self-cleavage was 0.88.
In the case of U20A U39C U115C, the self-cleavage is reported as 0.51.
With U20A A24G U112A A124G the self-cleavage was 1.89.
Work on U15C G89A G126A yielded a self-cleavage of 0.05.
Work on U15C U46C A79G U91A C145A yielded a self-cleavage of 1.2.
In the case of C19U A30U A43G A107U, the self-cleavage is reported as 1.05.
Variant U20A U23A A42G A69G G75U A138G has a self-cleavage of 0.63.
In the case of C19U U52C U100C, the self-cleavage is reported as 0.88.
Work on U15C U39C C98G U115C yielded a self-cleavage of 0.12.
Variant U20A U26G A30G U115A has a self-cleavage of 0.45.
Variant U15C U115A A121G A124U has a self-cleavage of 1.96.
For C19G U46C U104A, the self-cleavage was 0.89.
C19U G74A G88C U108C showed a self-cleavage of 0.08.
For C19U G105A U119C, the self-cleavage was 1.3.
With C18U G58U U100C the self-cleavage was 0.09.
With C17U U45A U134A the self-cleavage was 1.03.
For C18U A117U A138G, the self-cleavage was 1.68.
For C19U A22G G58A U104A, the self-cleavage was 0.
C16U U87C U119C gave a self-cleavage of 0.22.
In the case of C17U A64U A94G, the self-cleavage is reported as 0.14.
With C19U C38A A42G U81C A140G the self-cleavage was 1.47.
With U15C U20A U46C A92U G106A A140G the self-cleavage was 0.78.
C19U A43G A94U U115G showed a self-cleavage of 0.08.
Variant C16U U23A U108C has a self-cleavage of 1.53.
With U20A A43G U100C G126A the self-cleavage was 2.86.
In the case of C16U U26C U102A A121C A136G, the self-cleavage is reported as 1.84.
C19U U45C A69G gave a self-cleavage of 1.39.
For U15C U47A G126A, the self-cleavage was 1.77.
In the case of U15C U29A A136U A138G, the self-cleavage is reported as 1.35.
In the case of U15C U45C A59G G70U A117G U130C, the self-cleavage is reported as 0.
In the case of U15G U26C A57U A67G, the self-cleavage is reported as 0.
U15C U26G U39C gave a self-cleavage of 0.32.
For U20A U26A U91C A92G, the self-cleavage was 0.
Work on C19U U39A U104C A138G yielded a self-cleavage of 1.75.
Work on U15C U20C G58U U87C yielded a self-cleavage of 0.09.
C19U A78U U104C U115A showed a self-cleavage of 2.55.
Variant C19A U85C U115C has a self-cleavage of 0.2.
In the case of U20A G34A U45C A140G, the self-cleavage is reported as 0.97.
C19U A42U U108C gave a self-cleavage of 2.38.
U20A U26C G41A A65G A77G showed a self-cleavage of 0.
Work on C17U U73G C90A C103A yielded a self-cleavage of 0.08.
U15C U20G U52C U119A U132C gave a self-cleavage of 1.45.
C19U C133A A141G gave a self-cleavage of 1.23.
In the case of U15G U26C A124U, the self-cleavage is reported as 1.26.
Work on U20A C38A A67G U96A C99U A138G yielded a self-cleavage of 0.05.
Variant U15C U102A G126A A138G has a self-cleavage of 1.6.
In the case of U15C U73A U104C U132C, the self-cleavage is reported as 2.77.
Work on U20A A22G G49U A69G U81A C118U G127A yielded a self-cleavage of 0.23.
With U15C U20A A59G U102A the self-cleavage was 0.18.
Variant C16U G36C U115C A124U A138G has a self-cleavage of 1.41.
For U15C U52A U62C U81A, the self-cleavage was 0.09.
